According to the supplement of paper PMC3334620:
The full ranking holds about 33,000 sequences; the median of “E-score (-0.5 to 0.5)” is about -0.035, and the highest 2% start at about 0.35. The list shows a part of the results.

Target: T1, Pdr3 (UniProt P33200)
T1 sequence: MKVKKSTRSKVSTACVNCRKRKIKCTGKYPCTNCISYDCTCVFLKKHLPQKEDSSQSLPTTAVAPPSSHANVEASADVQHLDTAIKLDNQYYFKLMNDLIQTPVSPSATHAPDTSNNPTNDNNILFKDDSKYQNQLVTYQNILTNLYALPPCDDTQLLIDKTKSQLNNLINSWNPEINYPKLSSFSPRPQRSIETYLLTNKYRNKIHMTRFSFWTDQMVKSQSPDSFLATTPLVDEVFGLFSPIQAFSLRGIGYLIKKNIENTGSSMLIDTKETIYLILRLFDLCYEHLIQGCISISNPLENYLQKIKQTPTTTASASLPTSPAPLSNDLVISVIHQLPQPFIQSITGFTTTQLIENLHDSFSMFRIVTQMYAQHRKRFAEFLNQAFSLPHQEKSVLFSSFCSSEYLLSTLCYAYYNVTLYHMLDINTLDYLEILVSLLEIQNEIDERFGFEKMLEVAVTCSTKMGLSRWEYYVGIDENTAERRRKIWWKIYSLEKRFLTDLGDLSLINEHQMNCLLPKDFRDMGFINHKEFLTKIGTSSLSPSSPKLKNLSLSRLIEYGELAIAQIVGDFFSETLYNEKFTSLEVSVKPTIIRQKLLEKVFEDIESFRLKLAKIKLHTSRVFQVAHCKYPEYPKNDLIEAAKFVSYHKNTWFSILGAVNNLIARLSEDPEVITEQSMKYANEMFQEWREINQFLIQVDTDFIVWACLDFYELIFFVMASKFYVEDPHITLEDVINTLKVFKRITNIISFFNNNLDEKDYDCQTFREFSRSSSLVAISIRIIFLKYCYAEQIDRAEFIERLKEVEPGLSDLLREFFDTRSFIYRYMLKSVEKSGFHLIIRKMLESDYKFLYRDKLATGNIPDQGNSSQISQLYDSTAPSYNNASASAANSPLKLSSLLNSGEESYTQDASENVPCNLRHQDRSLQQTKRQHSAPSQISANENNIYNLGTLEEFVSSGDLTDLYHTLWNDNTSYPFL
Experiment: PBM E-score (8-mer binding enrichment) (E-score (-0.5 to 0.5)); higher = stronger / more preferred TF binding; most listed sequences are background and not binding sites
Details: protein concentration: 200 nM; construct: GST-full length
Procedure, shortened: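 For each ungapped eight-base word taken together with its reverse complement, the Universal PBM Analysis Suite assigned an E-score. Binding data came from GST-tagged yeast transcription factors, applied at about 100-200 nM, on universal all-10-mer Agilent arrays made double-stranded by primer extension. Fluorescent anti-GST marked bound protein, and scans were normalised with masliner.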

| Sequence | PBM E-score |
| --- | --- |
| ATGTTCGG | 0.177 |
| ACGTGATC | 0.0401 |
| CTATACTA | 0.0568 |
| AGACCAAA | -0.0726 |
| GCAATTAA | 0.0225 |
| AAGGAGAG | -0.333 |
| AATCTCGC | 0.0665 |
| AAGCACAA | -0.0605 |
| CAGCATTA | -0.138 |
| CTAGCCAG | -0.192 |
| GGCTATAC | 0.0316 |
| AACTTTTG | 0.0403 |
| ACCTAACT | -0.0194 |
| GATGTGGA | 0.0996 |
| GAATCCGA | 0.273 |
| AGGTGAAC | -0.0422 |
| CTTCGTAC | -0.13 |
| GACCCCCA | -0.218 |
| CCTCAACG | -0.248 |
| ATCATTCC | 0.281 |
| CTACAAAC | -0.221 |
| ATCCACTC | 0.181 |
| TCGAGCCA | -0.0567 |
| ACCTTTTG | -0.0905 |
| CTCCAGTC | -0.00017 |

| Sequence | PBM E-score |
| --- | --- |
| CGGAAACG | 0.396 |
| AGTGAGGG | -0.121 |
| ACGGCATA | 0.131 |
| AAGGACTC | -0.108 |
| AAACGTAG | -0.175 |
| AACAGTTG | -0.156 |
| ATTAGCGC | 0.166 |
| ACCCGCCT | -0.058 |
| TATTCGGA | 0.328 |
| GAACCGGA | 0.416 |
| CGACCGAC | 0.0782 |
| TGGGCGAA | 0.0243 |
| AGGATGCA | -0.117 |
| ATCCGTTA | 0.364 |
| AGTAATCA | 0.134 |
| CAAAGACA | -0.0391 |
| ACGTCCTA | 0.154 |
| GAACGCAC | 0.133 |
| GCTATCAC | -0.138 |
| GTACGCGA | -0.214 |
| TGGCCACA | 0.00252 |
| ACAAATTG | -0.0205 |
| ATATCCGG | 0.384 |
| CCTGGTTA | -0.18 |
| TCTCAGCA | -0.228 |

| Sequence | PBM E-score |
| --- | --- |
| CGATCGCA | 0.0259 |
| AGGTCCGC | 0.291 |
| AAAGCTAA | -0.18 |
| GGACCTGA | 0.0919 |
| ATGCAGGG | -0.0412 |
| CCACTCGC | -0.0198 |
| CAGTCGGG | 0.163 |
| TACGCACA | -0.103 |
| CGCTGGGC | -0.0176 |
| ACAAATAA | -0.0268 |
| AACCCGCT | 0.176 |
| ACTGAATA | -0.0651 |
| AGAGACCA | -0.201 |
| AACGACTA | -0.171 |
| TCCGGCAA | 0.356 |
| CGAGGTAA | 0.0804 |
| CTTAGGTA | -0.0904 |
| CAATCACG | 0.147 |
| TGTAAGAA | -0.00235 |
| AATAATGG | -0.0232 |
| TAACTAGA | 0.0866 |
| CGGTTATC | 0.129 |
| GGTAGATA | 0.0651 |
| ATAAACAG | -0.0846 |
| ACATACGC | 0.0424 |

| Sequence | PBM E-score |
| --- | --- |
| AAATACTT | 0.13 |
| GGCGTAAC | -0.262 |
| ATGATACA | -0.0776 |
| AAGACTCA | -0.346 |
| AGTTGCAA | -0.101 |
| ACGCACTC | -0.123 |
| AGTAGCAT | -0.0675 |
| AAACTTGA | -0.142 |
| ACTGCCGA | 0.207 |
| CACACAAC | -0.131 |
| GCTACAGC | -0.0518 |
| GATTGGCC | 0.0353 |
| AAACAGTT | 0.0427 |
| GCCCCCCA | -0.254 |
| ACTTTTCT | -0.107 |
| ATGCTGCA | -0.219 |
| TCTTAAGA | -0.152 |
| AAATCGGG | 0.195 |
| ATATCTAA | -0.0673 |
| CTCGGAGA | 0.312 |
| GTCAGATA | -0.0744 |
| ACGCTCAC | -0.0101 |
| CTGATTGC | -0.0452 |
| GATACAGC | 0.143 |
| AAGAGCCT | -0.236 |

| Sequence | PBM E-score |
| --- | --- |
| ATGCTAAG | -0.173 |
| AACGTGTG | -0.324 |
| CTCCAATC | -0.0449 |
| GCCCAACC | 0.056 |
| CAGACACG | -0.00957 |
| ATATTGTC | 0.194 |
| ACCTTTCA | -0.0243 |
| GACGATCC | 0.223 |
| ACGCGGCG | 0.209 |
| CTATGGGA | -0.116 |
| AAGTGCCC | 0.0267 |
| AGAACAGC | -0.0171 |
| ATCATAGC | -0.025 |
| GAACTACC | 0.0415 |
| GAACACGC | 0.106 |
| CTGCTGAC | -0.0562 |
| CTAATCTA | -0.128 |
| GTCCTAGA | -0.23 |
| AAACCATG | 0.141 |
| TGACGTCA | 0.0226 |
| GGGAAGAA | -0.0436 |
| ACACAAGG | -0.149 |
| ATAGGTCG | 0.0936 |
| ATCCTGCG | -0.0951 |
| TCCTTCCA | -0.133 |

| Sequence | PBM E-score |
| --- | --- |
| CATTATTC | 0.0651 |
| CGAAGACC | 0.0631 |
| CTCTTAAG | -0.162 |
| AGTCGCCA | -0.248 |
| ATCCCCGG | 0.386 |
| CTTTGAGC | -0.241 |
| ATGCCCAT | -0.183 |
| ACTGCACA | -0.193 |
| CATCGTCG | -0.12 |
| CTTGAGAC | -0.228 |
| CATGACCG | 0.0152 |
| CACGAATG | -0.0841 |
| ACGCCTTC | -0.0435 |
| AGACCTCT | -0.166 |
| ATAGGTAA | -0.194 |
| ACTGCACT | -0.0921 |
| CGCAAAAC | 0.0542 |
| CTCACCGC | -0.0657 |
| GCACCCGC | 0.287 |
| AGGGTGAT | -0.181 |
| CGAATCGC | 0.0252 |
| AGTTAATA | 0.109 |
| AGACAGCT | -0.174 |
| CGCCTCTC | -0.308 |
| GAATGCTC | 0.0393 |

| Sequence | PBM E-score |
| --- | --- |
| CAGGCTGA | -0.188 |
| CCACCAAC | 0.0804 |
| TAAAGACA | -0.229 |
| ACCGGCGT | 0.0675 |
| TCGCTACA | -0.285 |
| ATGAATGC | 0.00547 |
| CTCATAAC | -0.168 |
| ATGACAAT | -0.0353 |
| AATTTCTG | -0.0978 |
| GAGCATAA | 0.178 |
| AAATTTAA | 0.0473 |
| ATACGTAG | -0.129 |
| GTTCTGCA | -0.0811 |
| CCGTGCTA | 0.0735 |
| ACTCAGCC | -0.146 |
| TCTCGTAA | -0.0824 |
| GTATTCAC | 0.142 |
| CCCAGTCG | 0.0531 |
| AAACGTAC | -0.169 |
| ATGCTACG | -0.00101 |
| ACATGAAC | -0.094 |
| ATCACAGG | -0.194 |
| TGCTCCAA | -0.106 |
| CCATAGGC | -0.0293 |
| ACGAGCTG | -0.065 |

| Sequence | PBM E-score |
| --- | --- |
| CAAGCGCA | 0.15 |
| CTTCTGAC | -0.272 |
| CTGCAGTA | -0.195 |
| TCTAAAAA | -0.222 |
| ACCTTTTC | -0.156 |
| GTTTGACA | 0.0509 |
| CCCGCCGC | 0.27 |
| TGAAAGAA | -0.108 |
| ATTTGCGA | -0.0443 |
| CCTCCACG | -0.0326 |
| AAGGGGAG | -0.118 |
| CGGGTAGA | 0.15 |
| CATCACCA | -0.148 |
| TACGACAA | 0.00989 |
| CGCGTACC | -0.133 |
| ACCACTCC | 0.197 |
| ACAGGTAT | -0.038 |
| AGAAGATG | -0.124 |
| GTGCGAAC | 0.0001 |
| AGCCTTTA | -0.193 |
| ATCGCGGA | 0.282 |
| CTACAGTC | -0.245 |
| ACATAACG | 0.00157 |
| CCCCGTGC | 0.264 |
| CCTTTATA | -0.263 |

| Sequence | PBM E-score |
| --- | --- |
| ACGCACGT | -0.184 |
| ACGATAGA | -0.244 |
| CCATGTTC | 0.0963 |
| AGATCCGG | 0.362 |
| AAAAGAAT | 0.121 |
| GACGCGAA | 0.117 |
| CAACGCGA | 0.114 |
| ACGGACGC | 0.205 |
| ACCGCGCA | 0.0742 |
| GAACGAGA | 0.0162 |
| GTTGGCCA | -0.05 |
| CCACTACG | 0.0288 |
| GGTGGGCA | -0.114 |
| AAACGTCA | -0.149 |
| ATTCGGTC | 0.0502 |
| GAGACAGA | 0.0698 |
| ATTGCAGG | -0.0394 |
| TTTACAAA | -0.125 |
| AGATGGTG | -0.184 |
